Where a chain is given by its changes, count along the chain named. The list shows a part of the results.
T1: UNK ZnF1-3 (human, UniProt Q9C0B0 31-174)
T1 sequence: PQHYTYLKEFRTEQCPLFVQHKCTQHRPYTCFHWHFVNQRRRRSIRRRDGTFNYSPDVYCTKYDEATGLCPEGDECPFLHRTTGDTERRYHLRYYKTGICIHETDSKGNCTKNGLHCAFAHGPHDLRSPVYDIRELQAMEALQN

B1: chrX:148369326:148369327:+_ENSMUSG00000025261_ENSMUST00000112622|mus_mus|FALSE|FALSE (ssRNA)
RNA: GGGAGUUCUACAGUCCGACGAUCCUUGUCUCGCAUUGAAUCAUUAGCUGUGCACAUCAACACAUUCCAAGCACAAAUUAAGAAAUGCAAACAGAACAAAAAAAUAUAUAUAUAUAUAAUUUUUCCCCUAUCCAAAGGUUUCAACAACAGAGGAUUGAGCAUCA
B2: chr2:198351390:198351391:-_ENSG00000144381_ENST00000345042|hu_hu|hu_hu_hu_mus_False|18_108 (ssRNA)
RNA: GGGAGUUCUACAGUCCGACGAUCUCAUUCUCACUCUCCACAGAAAGGCUGCUUCUGAACUCUCAUGUGGUGACACAGCGCUACAGUCCUGAUGCUCACAGAACAGUAGAGAUGCCUCCUCAGUGAUAGUUGAAAGCAGGACACCAACAGAGGAUUGAGCAUCA
B3: chr14:23058014:23058015:-_ENSG00000129562_ENST00000250498|hu_hu|motif|central (ssRNA)
RNA: GGGAGUUCUACAGUCCGACGAUCAGCAGGUACGCGUCCAGCAACUUCAGACGCUGCGGAGUGGAGCUCAAGUACUCUUCGGAGAACCGCGAAAUGACAGACACUACCGACGCCGACAUAACUGCACGCAAGGUACUCCAGUCCCAACAGAGGAUUGAGCAUCA
B4: 195163662_195163782_85_5pUTR_ENSG00000114331_ENST00000326793|human|control|control (ssRNA)
RNA: GGGAGUUCUACAGUCCGACGAUCCACGGCCGCGACUAGCGUUGCGCGGAGCUGCGAAGGGCGCCUCGCCCGCUGGUCAUAGCAGCCGCGAAGACGGCGACGACUAGUCAGGCCCCAGUCCCGCCCCUCUUCCUCCCGCCCCAACAACAGAGGAUUGAGCAUCA
B5: chr12:41043843:41043844:-_ENSMUSG00000055917_ENSMUST00000069637|mus_mus|FALSE|FALSE (ssRNA)
RNA: GGGAGUUCUACAGUCCGACGAUCUUUGGAUUUGAACUUUACAUGGCAACUGUAGCACUUGCAUUGGUGAACUUGCCUUCUAAUGAAAUUGACCAGCUUCACUUGCUGAUAGAAAUUUAAUCCAAGCUCUGACUUUAUUCUGAGCAACAGAGGAUUGAGCAUCA
B6: chr6:114270382:114270383:-_ENSG00000196591_ENST00000368632|hu_mus|FALSE|FALSE (ssRNA)
RNA: GGGAGUUCUACAGUCCGACGAUCCAUCUCCAUCACUUUUGAGAUGAUAGGCUUAAAAAUUUGUCCAUAUGAUUCAUCAUCUAUACCAUCUCUCAUGGGAAAAUUGACAGCAUAGUAUUUUCCCUUUCCAGCACCAAUAUCCCUCAACAGAGGAUUGAGCAUCA
B7: chr16:53361121:53361122:+_ENSG00000177200_ENST00000398510|hu_mus|motif|central (ssRNA)
RNA: GGGAGUUCUACAGUCCGACGAUCGAGGCCUGAAACAAGGGGUAGACCACAAGGCAACACCAGCUAUAACUCUCUCAGGAACGGCCAACACGUACUGGGAUAGCCUUUCAGCUGCAGCUUGAGUAAGUGGGACUGCAUUGACUUCAACAGAGGAUUGAGCAUCA
B8: chr4:76721835:76721836:+_ENSG00000138768_ENST00000264904|hu_mus|hu_hu_hu_mus_True|28_98 (ssRNA)
RNA: GGGAGUUCUACAGUCCGACGAUCGUUUGGCUGGGGUUCUGAGAUGCCUCUGGAAUAUAACUCAUGUUUGCUAAUAAAUCCUAGUUUCUCUAUGAAAUUCUCUUUGCAAUCCUCUUCCUCUAUUAGUUGCUUUAGUUUCUCUUUCAACAGAGGAUUGAGCAUCA
B9: chr1:46159212:46159213:+_ENSG00000159596_ENST00000372025|hu_mus|hu_hu_hu_mus_True|68_68 (ssRNA)
RNA: GGGAGUUCUACAGUCCGACGAUCUCUGAUCCCUCCCAAGAAAGCUAGGAAACCGGCUCCAUAAGCCAUCUGAGUAAAAGCUAGGACGGGGAUAUAAGACUUUGUUAUUACCAUGAGAAGUGGGGGAGCAGUAAAGGGGAUUAACAACAGAGGAUUGAGCAUCA
B10: chr5:122941739:122941740:-_ENSMUSG00000029467_ENSMUST00000031423|mus_hu|motif|central (ssRNA)
RNA: GGGAGUUCUACAGUCCGACGAUCUCUUUCCUGCCAUACACCCACAAUUGCAUUGGCUACUAAUAUGAGUAAAAUUACAAAAGGUUCGGCAAAGGCUGUAAUUGUUUCUUCACCUUCUUCAAACCAAGCCAAAACAAAAGAUAUCAACAGAGGAUUGAGCAUCA
B11: chr1:130485734:130485735:-_ENSMUSG00000045382_ENSMUST00000052172|mus_mus|mus_mus_mus_hu_False|58_88 (ssRNA)
RNA: GGGAGUUCUACAGUCCGACGAUCGAUGAAGGAGUCGAUGCUGAUCCCCACAUAAUAAGGCAGCCAACAGGCGAAGAAAGCUAGGAUGAGGAUGACUGUGGUCUUGAGGGCCUUGCGCUUCUGGUGGCCCUUGGAGUGUGACAGCAACAGAGGAUUGAGCAUCA
B12: chr22:19452774:19452775:-_ENSG00000070010_ENST00000399523|hu_hu|hu_hu_hu_mus_False|28_48 (ssRNA)
RNA: GGGAGUUCUACAGUCCGACGAUCCUUCUCAUUGUAGUUGAUAGCAAUCACAUCUCCAGUCGUCAGACAGGCGAAGUUUCUCAAUGCGUUUUCUAAUACCGCUUUAGGGUUGGUGAUAUCCAGGAAGUCUGGGCUCUGAGGCUGCAACAGAGGAUUGAGCAUCA
B13: chr2:48026839:48026840:+_ENSG00000116062_ENST00000540021|hu_hu|hu_hu_hu_mus_False|8_8 (ssRNA)
RNA: GGGAGUUCUACAGUCCGACGAUCAUAGUGAGCCACUAGCGUCCUAAAUCUGGAACAGUGGCGGUCAUCCGAAAACUGGCCGAUGAAAAACUUGCCCAGUGAAGUGUCCACAAAGCAAACACCAUACGCACGAGUAUGACCAGACAACAGAGGAUUGAGCAUCA
B14: chr3:179287964:179287965:+_ENSG00000136518_ENST00000429709|hu_hu|hu_hu_hu_mus_True|48_68 (ssRNA)
RNA: GGGAGUUCUACAGUCCGACGAUCCUUGAGUGGUGAGAUGGCCUCCAUGUUCUCCCUGGGCACGCGGAGAGCAUUAGUGUCUAUGUAGUAGGUGGGACCGCCCUGCUUGCCUUUGUCACCAUCAAUCUCCAUCAUUGUACUUCCCAACAGAGGAUUGAGCAUCA
B15: chr7:30890253:30890254:+_ENSMUSG00000049421_ENSMUST00000108200|mus_mus|motif|central (ssRNA)
RNA: GGGAGUUCUACAGUCCGACGAUCUUCUUUCUGGCUAAAAGCCUUACCACACUCAUUACACUUAAAAGGUUUCUUCCCACGGUGGAUAUUCUGGUGUUUAAUGAGGUAUUGCUUCUGGCUGAAGGCUCUUCCACACUGACUACACAACAGAGGAUUGAGCAUCA
B16: 108466383_108469091_1100_3pUTR_ENSG00000108018_ENST00000263054|human|control|control (ssRNA)
RNA: GGGAGUUCUACAGUCCGACGAUCUGAUGUCAGCUGAACAAACACAUAAUGAUCCUGAACAAUCAAAGAGUCUGGGUCAAUGUAGCCUGGAAAAGGCUGAUUCCUGUUGGCCUCUGUACAGUUCUGCAUUCGGCAAGUUAGAUACAACAGAGGAUUGAGCAUCA
B17: chr1:46159212:46159213:+_ENSG00000159596_ENST00000372025|hu_mus|hu_hu_hu_mus_True|48_108 (ssRNA)
RNA: B9 RNA with U33A, A75G, G90A
B18: 16164087_16164207_2571_3pUTR_ENSG00000169762_ENST00000405303|human|control|control (ssRNA)
RNA: GGGAGUUCUACAGUCCGACGAUCAUAAUUUAUGAAGUAAUUAGUUUUAAAGCAAAAUCAGUUAAGUAUACCUUAAAGUUAACACUGCUCUGCUUCCUUGGUGUAAAAAGUGCCCUUUUGUAAGGAAAUUUGUUUUAUCCACCACAACAGAGGAUUGAGCAUCA
B19: chr3:96579679:96579680:+_ENSMUSG00000028098_ENSMUST00000029740|mus_hu|motif|central (ssRNA)
RNA: GGGAGUUCUACAGUCCGACGAUCGUGGAGGUCUUGCUCCCCAGAAGUCAGUGUGAGUCUGGUGACCCCUUUCAUUGGCUCGGUUAUCUUGGUCCAGUGGACUGCUACUUAGAAAGGGUCUAAAAUCUUGAAAAAACAUCGUGUCAACAGAGGAUUGAGCAUCA
B20: chr18:9122563:9122564:+_ENSG00000178127_ENST00000318388|hu_mus|FALSE|FALSE (ssRNA)
RNA: GGGAGUUCUACAGUCCGACGAUCGACCUGGAUAUGGUACUUCCCAACUGGCUUUCGAUUAUACAUUGUAUAAAAAGUUGCUACUUCAUAUACUCUCAUUGGAGGUACUUGUAAAACUUCAGCCACCUUGUUCAUAGCGGAGAUCAACAGAGGAUUGAGCAUCA
B21: chr13:22070289:22070290:-_ENSG00000165487_ENST00000382374|hu_mus|motif|central (ssRNA)
RNA: GGGAGUUCUACAGUCCGACGAUCAGCAAAGUCUUCCAAAUGCGUUGUAAAAUGGCAAAAGGACUUGAACUCAUCCAAACGGAUGCUCUCUCCUACUGACAACUUUUCUCUCACGUUUCUCCAGUAAAUAUCUUUAUUUUCAGUCAACAGAGGAUUGAGCAUCA
B22: chr4:148551591:148551592:-_ENSMUSG00000063077_ENSMUST00000060537|mus_hu|mus_mus_mus_hu_False|18_28 (ssRNA)
RNA: GGGAGUUCUACAGUCCGACGAUCACCUGACAAAAUUAAAUAUCCCUGUAAAUUAGACAAUAAGCAGCAGGCAACAAAGUCUUUGCUUUGGAAUAUGUGCCAGGAAAAAUCAUGUUUUAGACCCCAAUCAAGAGACAGUUCACACAACAGAGGAUUGAGCAUCA

Target: T1, UNK ZnF1-3
Test: nsRBNS (natural sequence RNA bind-n-seq); RBNS binding buffer (assumed for nsRBNS): 25 mM Tris pH 7.5, 150 mM KCl, 3 mM MgCl2, 0.01% Triton X-100, 500 ug/ml BSA, 20 U/ml SUPERase-In, 4 C; UNK is unkempt and MSI1 is Musashi-1; names of the RNAs are library labels; protein concentration not given here; high values mean tight binding

Row | Binder | binding signal
1 | B1 | 0.743 enrichment R
2 | B2 | 1.02 enrichment R
3 | B3 | 1.65 enrichment R
4 | B4 | 0.616 enrichment R
5 | B5 | 0.883 enrichment R
6 | B6 | 1.6 enrichment R
7 | B7 | 1.12 enrichment R
8 | B8 | 0.503 enrichment R
9 | B9 | 1.25 enrichment R
10 | B10 | 1.22 enrichment R
11 | B11 | 1.37 enrichment R
12 | B12 | 0.753 enrichment R
13 | B13 | 0.992 enrichment R
14 | B14 | 0.688 enrichment R
15 | B15 | 0.687 enrichment R
16 | B16 | 0.94 enrichment R
17 | B17 | 1.36 enrichment R
18 | B18 | 1.09 enrichment R
19 | B19 | 0.687 enrichment R
20 | B20 | 0.856 enrichment R
21 | B21 | 1.37 enrichment R
22 | B22 | 1.46 enrichment R

Reference: publication PMC12136788
